Data: patent US11178870B2 (priority 2017, dated 2021)

Test system: Colletotrichum orbiculare
Settings: in vivo

SMILES | Test H control value
CCn1c(-c2c(F)cccc2F)c(-c2ocnc2OC)cc(Cl)c1=O [Compound 91] | L (key: H shows the control value more than 50%; L shows the control value of 50% or less)
Cn1c(-c2c(F)cccc2F)c(-c2cccnc2Cl)ccc1=O [Compound 99] | H (key: H shows the control value more than 50%; L shows the control value of 50% or less)
CCn1c(-c2c(F)cc(F)cc2F)c(-n2cc(C(F)F)cn2)cc(Cl)c1=O [Compound 124] | H (key: H shows the control value more than 50%; L shows the control value of 50% or less)
CCn1c(-c2c(F)cccc2F)c(-c2ocnc2Br)cc(Cl)c1=O [Compound 49] | H (key: H shows the control value more than 50%; L shows the control value of 50% or less)
CCn1c(-c2c(F)cccc2F)c(-c2oc(I)nc2I)cc(Cl)c1=O [Compound 75] | L (key: H shows the control value more than 50%; L shows the control value of 50% or less)
CCn1c(-c2c(F)cc(F)cc2F)c(-n2cc(I)cn2)cc(Cl)c1=O [Compound 160] | L (key: H shows the control value more than 50%; L shows the control value of 50% or less)
CCn1c(-c2c(F)cccc2F)c(-c2ccsc2)ccc1=O [Compound 16] | H (key: H shows the control value more than 50%; L shows the control value of 50% or less)
CCn1c(-c2c(F)cc(F)cc2F)c(-n2cc(C(F)(F)F)cn2)cc(Cl)c1=O [Compound 155] | H (key: H shows the control value more than 50%; L shows the control value of 50% or less)
COc1cc(F)c(-c2c(-n3cc(Cl)cn3)cc(Cl)c(=O)n2C)c(F)c1 [Compound 177] | H (key: H shows the control value more than 50%; L shows the control value of 50% or less)
CCn1c(-c2c(F)cc(F)cc2F)c(C2OCCO2)cc(Cl)c1=O [Compound 9] | H (key: H shows the control value more than 50%; L shows the control value of 50% or less)
CCn1c(-c2c(F)cccc2F)c(-c2cccnc2Cl)cc(I)c1=O [Compound 65] | H (key: H shows the control value more than 50%; L shows the control value of 50% or less)
CCn1c(-c2c(F)cc(F)cc2F)c(-n2cc(Br)c(C)n2)cc(Br)c1=O [Compound 147] | L (key: H shows the control value more than 50%; L shows the control value of 50% or less)
COc1cc(F)c(-c2c(-n3cc(Cl)cn3)cc(Cl)c(=O)n2CC(F)F)c(F)c1 [Compound 111] | H (key: H shows the control value more than 50%; L shows the control value of 50% or less)
CCn1c(-c2c(F)cc(F)cc2F)c(-c2cnco2)cc(Br)c1=O [Compound 89] | H (key: H shows the control value more than 50%; L shows the control value of 50% or less)
CCn1c(-c2ccc(OC)cc2Cl)c(-c2ocnc2C)cc(Cl)c1=O [Compound 39] | H (key: H shows the control value more than 50%; L shows the control value of 50% or less)
CCn1c(-c2c(F)cc(F)cc2F)c(-n2cc(Br)c(C)n2)ccc1=O [Compound 108] | H (key: H shows the control value more than 50%; L shows the control value of 50% or less)
CCn1c(-c2ccc(F)cc2Cl)c(-c2cnco2)cc(Cl)c1=O [Compound 32] | L (key: H shows the control value more than 50%; L shows the control value of 50% or less)
CCn1c(-c2ccccc2Cl)c(-n2cc(C)cn2)cc(Br)c1=O [Compound 180] | H (key: H shows the control value more than 50%; L shows the control value of 50% or less)
CCn1c(-c2c(F)cc(F)cc2F)c(-n2cc(C)cn2)cc(C)c1=O [Compound 86] | H (key: H shows the control value more than 50%; L shows the control value of 50% or less)
CCn1c(-c2c(F)cc(F)cc2F)c(-n2nc(C)c(Br)c2C)ccc1=O [Compound 76] | L (key: H shows the control value more than 50%; L shows the control value of 50% or less)
CCn1c(-c2ccccc2Cl)c(-n2cc(Cl)cn2)cc(Br)c1=O [Compound 173] | H (key: H shows the control value more than 50%; L shows the control value of 50% or less)
CCn1c(-c2c(F)cc(OC)cc2F)c(-c2ocnc2Br)cc(Cl)c1=O [Compound 118] | H (key: H shows the control value more than 50%; L shows the control value of 50% or less)
CN1C(=O)CCC(c2ccsc2)=C1c1c(F)cccc1F [Compound 3] | L (key: H shows the control value more than 50%; L shows the control value of 50% or less)
CCn1c(-c2c(F)cc(F)cc2F)c(-n2c(Cl)nc(Cl)c2Cl)cc(Cl)c1=O [Compound 137] | H (key: H shows the control value more than 50%; L shows the control value of 50% or less)
CCn1c(-c2ccc(F)cc2Br)c(-n2cc(Cl)cn2)cc(Br)c1=O [Compound 166] | H (key: H shows the control value more than 50%; L shows the control value of 50% or less)
CCn1c(-c2c(F)cccc2F)c(-c2cnc(OC)o2)cc(Cl)c1=O [Compound 130] | L (key: H shows the control value more than 50%; L shows the control value of 50% or less)

SMILES | Test H control value
CCn1c(-c2c(F)cc(F)cc2F)c(-n2cc(C(F)(F)F)cn2)cc(C(F)(F)F)c1=O [Compound 154] | L (key: H shows the control value more than 50%; L shows the control value of 50% or less)
CCn1c(-c2c(F)cc(OC)cc2F)c(-n2cc(Cl)c(C)n2)cc(Br)c1=O [Compound 146] | H (key: H shows the control value more than 50%; L shows the control value of 50% or less)
Cn1c(-c2c(F)cc(F)cc2F)c(-n2cc(Cl)cn2)cc(Br)c1=O [Compound 176] | H (key: H shows the control value more than 50%; L shows the control value of 50% or less)
CCn1c(-c2c(F)cc(F)cc2F)c(-n2cc(NC(C)=O)cn2)cc(Cl)c1=O [Compound 163] | L (key: H shows the control value more than 50%; L shows the control value of 50% or less)
CCn1c(-c2ccc(F)cc2F)c(-n2ncc(C)c2Cl)cc(Cl)c1=O [Compound 182] | H (key: H shows the control value more than 50%; L shows the control value of 50% or less)
CCn1c(-c2ccc(OC)cc2F)c(-n2cc(Cl)cn2)cc(Cl)c1=O [Compound 149] | H (key: H shows the control value more than 50%; L shows the control value of 50% or less)
CCn1c(-c2c(F)cc(OC)cc2F)c(-c2oc(Br)nc2Br)cc(Br)c1=O [Compound 102] | H (key: H shows the control value more than 50%; L shows the control value of 50% or less)
CCn1c(-c2c(F)cccc2F)c(-n2cc(Cl)cn2)ccc1=O [Compound 52] | H (key: H shows the control value more than 50%; L shows the control value of 50% or less)
O=c1ccc(-c2cccnc2Cl)c(-c2c(F)cccc2F)n1CC(F)(F)F [Compound 58] | H (key: H shows the control value more than 50%; L shows the control value of 50% or less)
CCn1c(-c2c(F)cc(F)cc2F)c(-n2cc([N+](=O)[O-])cn2)cc(Cl)c1=O [Compound 161] | L (key: H shows the control value more than 50%; L shows the control value of 50% or less)
CCn1c(-c2c(F)cccc2F)c(-n2cccn2)ccc1=O [Compound 31] | H (key: H shows the control value more than 50%; L shows the control value of 50% or less)
O=c1c(Cl)cc(-n2cc(Cl)cn2)c(-c2c(F)cc(F)cc2F)n1CC(F)F [Compound 110] | L (key: H shows the control value more than 50%; L shows the control value of 50% or less)
CCN1C(=O)CCC(c2ccsc2)=C1c1c(F)cccc1F [Compound 4] | H (key: H shows the control value more than 50%; L shows the control value of 50% or less)
CCn1c(-c2c(F)cc(F)cc2F)c(-n2cccc2)cc(Cl)c1=O [Compound 132] | H (key: H shows the control value more than 50%; L shows the control value of 50% or less)
CCn1c(-c2ccc(F)cc2C)c(-n2cc(Cl)cn2)ccc1=O [Compound 168] | H (key: H shows the control value more than 50%; L shows the control value of 50% or less)
O=c1c(Br)cc(-c2cccnc2Cl)c(-c2c(F)cccc2F)n1CC(F)F [Compound 59] | H (key: H shows the control value more than 50%; L shows the control value of 50% or less)
CCn1c(-c2ccccc2Cl)c(-n2ncc(C)c2Cl)cc(Cl)c1=O [Compound 179] | H (key: H shows the control value more than 50%; L shows the control value of 50% or less)
CCn1c(-c2c(F)cccc2F)c(-c2cnc(N(C)C)o2)cc(Cl)c1=O [Compound 131] | L (key: H shows the control value more than 50%; L shows the control value of 50% or less)
CCn1c(-c2c(F)cc(OC)cc2F)c(-n2nc(C)cc2C)ccc1=O [Compound 94] | H (key: H shows the control value more than 50%; L shows the control value of 50% or less)
CCn1c(-c2c(F)cc(OC)cc2F)c(-n2cc(Br)c(C)n2)cc(Br)c1=O [Compound 151] | L (key: H shows the control value more than 50%; L shows the control value of 50% or less)
CCn1c(-c2c(F)cc(OC)cc2F)c(-c2cnco2)cc(Cl)c1=O [Compound 37] | H (key: H shows the control value more than 50%; L shows the control value of 50% or less)
O=c1c(Cl)cc(-n2cc(Cl)cn2)c(-c2c(F)cc(F)cc2F)n1CC(F)(F)F [Compound 121] | L (key: H shows the control value more than 50%; L shows the control value of 50% or less)
CN1C(=O)CCC(c2cccs2)=C1c1c(F)cccc1F [Compound 1] | H (key: H shows the control value more than 50%; L shows the control value of 50% or less)
CCn1c(-c2c(F)cc(F)cc2F)c(-n2ncc(C)c2Cl)ccc1=O [Compound 82] | H (key: H shows the control value more than 50%; L shows the control value of 50% or less)
CCn1c(-c2c(F)cc(OC)cc2F)c(-c2cnco2)cc(Br)c1=O [Compound 90] | H (key: H shows the control value more than 50%; L shows the control value of 50% or less)
CCn1c(-c2ccc(F)cc2F)c(-n2cc(Cl)cn2)cc(Cl)c1=O [Compound 148] | H (key: H shows the control value more than 50%; L shows the control value of 50% or less)
